From PubChem BioAssay AID624296 (National Center for Advancing Translational Sciences (NCATS), 2012)
The whole screen tested about 350,000 compounds, of which about 9,900 (2.8%) were called active. The inconclusive results got no clear call from the source; some entries with a clear call stand among them for comparison. Calls come from the whole dose curve; as a rule, active = well fitted activation curve with a large enough effect; inconclusive = small, poorly fitted or top-dose-only effect; inactive = no such curve, though single readings can be large or run the other way. Potencies of inconclusive entries are left out as doubtful fits.

Assay: A quantitative high throughput screen for small molecules that induce DNA re-replication in MCF 10a normal breast cells. For activity, positive = re-replication: % of control where 0% means no effect. Note: nearly all actives have a fitted effect of over 50% in size.
Settings: MCF 10A DNA re-replication, Hoechst nuclear intensity, 48 h; activity, positive = re-replication: at 46.1 µM (top of the series)
Potency is the fitted concentration of half-maximal effect; tags give direction and shape of the fitted curve.

Compound | Potency | activity, positive = re-replication
CC(C)(O)C#Cc1ccc(CN2CCN(C3CCCC3)C(CCO)C2)cc1 (centres undefined) | inconclusive [activator, partial curve, poor fit] | –
Cc1onc(-c2ccccc2)c1CNS(=O)(=O)c1ccccc1 | – | inactive: 7.87%
O=C(N/N=C/c1ccccn1)c1cc(-c2ccncc2)nc2ccccc12 | inconclusive [activator, single point] | –
Cc1ccc([N+](=O)[O-])cc1N=Nc1c(C)[nH]n(C(N)=S)c1=O | – | inactive: 0.681%
CC(C)OCCCn1c(-c2ccco2)nc2nc3ccccc3nc21 | inconclusive [activator, single point] | –
Cc1cc[n+](CC(=O)c2ccc3c(c2)OCCO3)cc1 | – | inactive: -2.31%
Cc1ccc(C(=O)C=Cc2cccc(C)c2)cc1 | active: 18.4 µM | –
COc1ccc(C2/C=C\CN(C(=O)c3ccccc3)[C@H](Cc3ccccc3)C(=O)N2Cc2ccc(F)cc2)cc1 (some centres undefined) | inconclusive [activator, single point] | –
CC(C)C(=O)NC(=S)Nc1ccccc1C(=O)NC1CCCCC1 | inconclusive [activator, partial curve, poor fit] | –
O=C(NCCCN1CCCC1=O)c1cccc(S(=O)(=O)N2CCN(c3ccc(F)cc3)CC2)c1 | – | inactive: 14.3%
COc1ccccc1CNS(=O)(=O)CCNCc1ccco1 | inconclusive [activator, full curve, poor fit] | –
COc1ccc2c(c1)-c1nc(/N=C/c3ccccc3O)sc1CC2 | inconclusive [activator, single point] | –
CC(C)(C)[C@H]1C=C(C(=O)Nc2ccccc2)O[C@@H](OCc2ccc(CO)cc2)C1 | inconclusive [activator, single point] | –
CCn1c(SCc2nc3ccccc3c(=O)[nH]2)nc2ccccc21 | inconclusive [activator, partial curve, poor fit] | –
C/C(=N\N=C1\NC(=O)C(CC(=O)O)S1)c1ccccn1 (centres undefined) | – | inactive: 0%
CCCCC(c1nnnn1CS(=O)(=O)c1ccc(C)cc1)N1CCN(c2ccccc2)CC1 (centres undefined) | inconclusive [activator, partial curve, poor fit] | –
CS(=O)(=O)c1ccc(-c2sc3ccccc3c2C#CCCO)cc1 | inconclusive [activator, single point] | –
Cc1cccc(NC(=O)c2cc(Cl)nc3ccccc23)n1 | inconclusive [activator, full curve, poor fit] | –
CCCc1nc2sc3ccccc3c(=O)c2c(=O)n1Cc1ccccc1 | inconclusive [activator, single point] | –
CCOC(=O)c1c(-c2ccccc2)csc1NC(=O)CSc1nc(C)cc(C)n1 | inconclusive [activator, partial curve, poor fit] | –

Compound | Potency | activity, positive = re-replication
COc1ccc(-c2cc(C(F)(F)F)n3ncc(C(=O)NCC4CCCO4)c3n2)cc1OC (centres undefined) | inconclusive [activator, single point] | –
Cc1ccc(C(=O)N2CCc3ccccc3C2)cc1S(=O)(=O)N1CCOCC1 | inconclusive [activator, partial curve, poor fit] | –
CN1c2ccccc2C(C)(C)C12C=Nc1c(cc(N3CCOCC3)c3ccccc13)O2 (centres undefined) | active: 7.31 µM | –
N=c1c2c(-c3ccccc3)c(-c3ccccc3)oc2ncn1CCCN1CCOCC1 | active: 11.6 µM | –
CC(Oc1cc2oc(=O)c3c(c2cc1Cl)CCC3)C(=O)NCCCn1ccnc1 (centres undefined) | inconclusive [activator, full curve, poor fit] | –
COc1ccc(-c2csc(NC(=O)Cc3ccccc3F)n2)cc1OC | inconclusive [activator, partial curve, poor fit] | –
Cc1ccc(NC(=O)Cn2c(=O)c3cccn3c3ccccc32)c(Cl)c1 | inconclusive [activator, single point] | –
O=C(COC(=O)/C=C/c1ccc(S(=O)(=O)N2CCOCC2)cc1)NCc1ccc(Cl)cc1 | inconclusive [activator, partial curve, poor fit] | –
COc1ccc(N(CC(=O)NCc2ccc3c(c2)OCO3)C(=O)CCC(=O)Nc2ccccn2)cc1 | inconclusive [activator, partial curve, poor fit] | –
CCC(C(=O)N1CCOCC1)n1c2ccccc2c2nc(=O)cc(C)n21 (centres undefined) | – | inactive: 8.19%
CCN1CCN(C(c2ccc(OC)c(OC)c2)c2nnnn2C(C)(C)C)CC1 (centres undefined) | inconclusive [activator, full curve, poor fit] | –
S=c1[nH]nc(COc2ccccc2)n1Cc1ccccc1 | inconclusive [activator, partial curve, poor fit] | –
O=C(C[C@@H]1C/C=C\CCC(=O)OC[C@@H]2CCCN2C1=O)NCCO | inconclusive [activator, full curve, poor fit] | –
CNc1oc(-c2cccc3ccccc23)nc1C#N | inconclusive [activator, full curve, poor fit] | –
Cn1c(=O)c(C(=O)CN2CCCCC2)c(N)n(Cc2ccccc2)c1=O | inconclusive [activator, partial curve, poor fit] | –
Cc1cc(NC(=O)CSc2nc3c([nH]c4ccccc43)c(=O)n2-c2cccc(C(F)(F)F)c2)no1 | inconclusive [activator, single point] | –
Cc1ccccc1-c1cc(C(=O)NCc2cccc(Br)c2)n(CC2CC(c3cccnc3)=NO2)n1 (centres undefined) | inconclusive [activator, partial curve, poor fit] | –
Cc1nn(-c2ccccc2)c(Cl)c1/C=N/Nc1nc2ccccc2n1C | inconclusive [activator, partial curve, poor fit] | –
CC(C)Oc1ccc(C(=O)Nc2ccc(S(=O)(=O)N3CCN(C)CC3)cc2)cc1 | inconclusive [activator, partial curve, poor fit] | –
